# Reference: patent publication US11021541B2, “Method of inhibiting the gonadotropin-releasing hormone (GnRH) receptor by administering a GHR-106 monoclonal antibody” (Vancouver Biotech Ltd., priority 2018, dated 2021)
# Legend:
# [1] = test system: OC-3-VGH, PC-3, A549 and MDA-MB-435 cancer cells; experiment: TUNEL apoptosis assay of cultured and treated cancer cells; assay type: cell-based; conditions: co-incubation 24 to 72 hours, compared on a molar basis, FIGS. 2A and 2B
# Experimental: In order to compare the anti-proliferative effects (or apoptosis) between mGHR106 or hGHR106 and antide on cancer cells, In Situ Cell Death Detection Kit, POD (Roche, Canada) was employed for detection and quantitation of apoptosis of cultured and treated cancer cells in vitro. Briefly cancer cells were cultured in RPMI-1640 medium at 37° C. in a CO2 (5%) incubator for 24 and/or 48 hours until all cancer cells are attached to microwells. Following removal of cell culture medium, fresh serum-free medium was added for an additional 3 hours incubation in a CO2 incubator.
# After the serum-free starvation period, the cells were incubated in fresh medium containing 10% fetal calf serum, and hGHR106, mGHR106 or antide of known concentration was added for co-incubation of 24 to 72 hours. As the negative control, normal mouse IgG or normal human IgG of the same concentration was used for the same incubation period.
# At the end of incubation, the attached cells were removed from tissue culture wells by appropriate cell detachment solution. Apoptosis of treated cancer cells was quantitatively determined by TUNEL assay with the instructions provided by Cell Death Detection Kit, POD (Roche, Canada). Percent increases of cells with apoptosis after treatments with any one of hGHR106, mGHR106 and antide were obtained by subtracting spontaneous apoptosis from the negative control. […]
# [2] = test system: OC-3-VGH cancer cells; experiment: Comparative gene regulation study in cancer cells; assay type: cell-based, human; conditions: FIG. 4; upon ligand treatment of cancer cells
# Excerpt: Comparative gene regulation upon administration of hGHR106 or the decapeptide GnRH analog antide was examined using conventional protocols, e.g. as described in U.S. Pat. No. 8,361,793. […] Expressions of a number of selected genes involved in the proliferation or survival of cancer cells were compared. The selected genes include: GnRH, GnRHR, P0, P1, P2, L37, and EGF, c-fos, P21 and cyclin D1. P0, P1, P2, and L37 are ribosomal proteins.
molecule,measurement,setting,value
hGHR-106: humanized GHR-106 monoclonal antibody against the GnRH receptor (antibody) heavy: QVQLQESGPGLVKPSETLSLTCTVSGFSLSRYSVHWIRQPPGKGLEWIGMIWGGGSTDYNPSLKSRVTISKDNSKSQVFLKMSSVTAADTAMYYCARGNDGYYSFAYWGQGTLVTVSSASTKGPSVFPLAPCSRSTSESTAALGCLVKDYFPEPVTVSWNSGALTSGVHTFPAVLQSSGLYSLSSVVTVPSSSLGTKTYTCNVDHKPSNTKVDKRV[human IgG4 Fc with S228P (EU numbers) skipped] light: DIVMTQSPDSLAVSLGERATINCKSSQSLLNSRTRKNYLAWYQQKPGQSPKLLIYWASTRESGVPDRFSGSGSGTDFTLTISSLQAEDVAVYYCKQSYNLYTFGQGTKLEIKRTVAAPSVFIFPPSDEQLKSGTASVVCLLNNFYPREAKVQWKVDNALQSGNSQESVTEQDSKDSTYSLSSTLTLSKADYEKHKVYACEVTHQGLSSPVTKSFNRGEC,induced apoptosis (percent increase of cells with apoptosis),[1],very similar degrees of induced apoptosis
same,Cyclin D1 expression,[2],downregulated
same,EGF expression,[2],downregulated
same,GnRH expression (up-regulation),[2],50%
same,expression of the GnRH receptor (GnRHR),[2],unchanged
